# The full ranking holds about 110,000 compounds; the median of “z-score” is about -0.1, and the highest 2% start at about 2. This is one part of the list.
# Target: Metabotropic glutamate receptor 8 (Rattus norvegicus) (UniProt P70579)
# Assay: rat mGluR8 modulators via GIRK flux, primary screen, cell-based, thallium flux, HTS (AID 488969)
# Conditions: HEK293 rat mGluR8, GIRK (G protein-gated inwardly rectifying potassium channel) thallium flux, FluoZin2; at 10 µM; stronger effect = higher value; submaximal glutamate (EC20) added with thallium
# Sequence of UniProt P70579 (P70579 whole entry, looked up): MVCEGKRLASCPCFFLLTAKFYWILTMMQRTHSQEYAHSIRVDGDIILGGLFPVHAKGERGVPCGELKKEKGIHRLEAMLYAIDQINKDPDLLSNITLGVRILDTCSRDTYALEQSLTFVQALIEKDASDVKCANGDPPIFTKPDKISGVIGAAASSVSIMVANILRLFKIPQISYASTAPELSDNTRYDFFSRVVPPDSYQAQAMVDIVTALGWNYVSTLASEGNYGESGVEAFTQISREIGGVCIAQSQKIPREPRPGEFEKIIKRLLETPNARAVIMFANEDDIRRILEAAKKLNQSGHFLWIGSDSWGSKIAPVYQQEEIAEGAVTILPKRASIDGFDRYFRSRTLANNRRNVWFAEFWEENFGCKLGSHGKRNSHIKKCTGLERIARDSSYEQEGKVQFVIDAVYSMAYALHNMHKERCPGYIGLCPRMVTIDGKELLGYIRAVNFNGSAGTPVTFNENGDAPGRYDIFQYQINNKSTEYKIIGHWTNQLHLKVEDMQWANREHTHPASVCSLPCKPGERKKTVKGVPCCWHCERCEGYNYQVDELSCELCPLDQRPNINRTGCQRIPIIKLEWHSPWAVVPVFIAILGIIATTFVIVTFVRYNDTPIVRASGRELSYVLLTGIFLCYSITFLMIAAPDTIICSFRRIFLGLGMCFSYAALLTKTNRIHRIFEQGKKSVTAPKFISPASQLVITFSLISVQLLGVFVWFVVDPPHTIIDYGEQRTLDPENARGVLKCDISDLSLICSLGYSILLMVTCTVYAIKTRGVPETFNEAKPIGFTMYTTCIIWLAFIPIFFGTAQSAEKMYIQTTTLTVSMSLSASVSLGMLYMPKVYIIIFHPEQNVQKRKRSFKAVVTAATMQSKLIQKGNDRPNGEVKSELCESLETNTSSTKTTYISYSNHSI
row,Compound,z-score
1,CCn1c(=O)c2c(cnn2C)c2ccccc21,-0.227
2,COCCN1C(=O)c2ccc(C(=O)NCc3cccnc3)cc2C1=O,-0.0574
3,CCOCCCNS(=O)(=O)c1ccc2c(c1)CCN2C(C)=O,0.645
4,c1ccc2c(c1)NC1(CCCCCC1)n1c-2nc2ccccc21,-0.11
5,N#CCc1ccc(C(=O)c2ccccc2F)s1,-0.117
6,O=C1NC(=S)S/C1=C/c1ccc(N2CCOCC2)o1,0.253
7,COc1ccc(NC(=O)Cn2nnc(-c3ccccc3NC(=O)c3cccs3)n2)cc1,-0.484
8,Clc1ccc(OCc2nn3c(-c4ccccc4)nnc3s2)c(Cl)c1,-0.156
9,C=CCn1c(-c2ccc(S(=O)(=O)N3CCOCC3)cc2)csc1=Nc1ccccc1,0.017
10,COc1ccc(CC(NC(C)=O)C(=O)NC2CCN(S(=O)(=O)c3ccccc3)CC2)cc1OC (stereo not drawn),-0.0462
11,Cc1cc(C)c(-n2nnnc2SC(C)C)c(C)c1,-0.84
12,CCN(CC)c1ccc(NC2=C(Cl)C(=O)c3ccccc3C2=O)cc1,-0.441
13,Cc1cc(C)nc(SCC(=O)NCc2ccco2)n1,0.232
14,CCOC(=O)C1CCN(C(=O)/C=C/c2ccc(OC)cc2)CC1,-0.702
15,CCOC(=O)c1ccc(NC(=S)N(CCCN2CCCCC2)Cc2ccco2)cc1,0.0993
16,COc1ccc(NC(=S)N(CCCN2CCCC2)Cc2cccs2)cc1,-0.236
17,Cc1sc2ncn3ncnc3c2c1C,0.0326
18,Cc1ccc(SCC(=O)O/N=C(\N)c2cccc([N+](=O)[O-])c2)cc1,-0.154
19,O=C(Cn1cc(C(F)(F)F)cc(Cl)c1=O)NCCc1ccccc1,-0.155
20,COc1cccc(C(C(=O)NC2CCCCC2)N(C(=O)Cc2cccs2)c2ccc(-n3cnnn3)c(OC)c2)c1 (stereo not drawn),-0.139
21,CCC1(C)Cc2c(sc3nnn(CC(=O)Nc4ccc(C)cc4)c(=O)c23)CO1 (stereo not drawn),-0.437
22,O=C(CCCCCn1c(=O)[nH]c2ccsc2c1=O)NCc1ccc(F)cc1,-0.724
23,Cc1ccc2c(c1)nc(NCCO)n2C,-0.14
24,O=C(OCC(=O)c1c[nH]c2ccccc12)c1cccc(S(=O)(=O)N2CCCCCC2)c1,-0.277
25,Cc1cc(=O)n(-c2ccc3ccccc3n2)[nH]1,-0.135

row,Compound,z-score
1,COc1c(Br)cc(C(N)=O)cc1OCc1ccccc1,-0.231
2,CCC(=O)c1ccc2ncccc2c1,-0.00376
3,COC(=O)c1ccccc1NC(=O)CSc1ccccn1,-0.121
4,CCOc1c2ccc(C(=O)NC3CCCc4ccccc43)cc2nn1CC (stereo not drawn),-0.225
5,Cc1cc(C)n(C(=O)c2ccc(S(=O)(=O)N3CCCC3)cc2)n1,0.0709
6,C/C(N)=C(/C#N)C(=O)COC(=O)c1cc(-c2cccc(Br)c2)nc2ccccc12,0.115
7,CC(C)C1N=C2c3ccccc3N=C(SCc3cc(=O)n4ccccc4n3)N2C1=O (stereo not drawn),-0.316
8,COC(=O)C1(c2ccccc2)NC(c2cccs2)C2C(=O)N(c3ccccc3)C(=O)C21 (stereo not drawn),-0.227
9,CC/C(=N\NC(=O)c1ccncc1)C12CC3CC(CC(C3)C1)C2,0.0155
10,O=C(CCN1CCCCCC1)Nc1ccccc1F,0.0555
11,O=C(NCc1ccccc1)c1c[nH]c2cc3c(cc2c1=O)OCCO3,-0.348
12,Cc1cccc(OC(C)c2ccnc3nc(/N=C/N(C)C)nn23)c1 (stereo not drawn),-0.0572
13,O=C(Cc1ccccc1)Nc1cccc(N2CCCC2)c1,-0.184
14,CCn1cnc2cc(NCc3ccncc3)ccc21,-0.597
15,CCOc1ccc(NC(=O)NCCCN2CCCC2)cc1,-0.357
16,O=c1[nH]c2ccccc2nc1C(F)(F)C(F)F,-0.967
17,CCn1c(SCC(=O)Nc2nccs2)nnc1-c1cc2cccc(OC)c2o1,-0.59
18,Cc1ccc(CNc2nc3ccc(C)cc3n3cnnc23)cc1,0.269
19,COc1cccc(-c2cc(C(F)(F)F)nc(N3CCOCC3)n2)c1,0.839
20,Cc1onc(-c2ccccc2Cl)c1C(=O)Nc1ccc(F)c(F)c1,-0.468
21,Cc1ccc(-n2nc3ccc(NC(=O)c4cccc([N+](=O)[O-])c4C)cc3n2)cc1,-0.288
22,COc1ccc(OC)c(NS(=O)(=O)c2ccc(SC)cc2)c1,-0.532
23,CCOc1ccccc1N(CC(=O)Nc1cccnc1)S(C)(=O)=O,0.287
24,CCC(C)NC(=O)c1c(N)n(/N=C/c2cccnc2)c2nc3ccccc3nc12 (stereo not drawn),-0.365
25,CC1CN(C(=O)C2CC2)C(C)CN1C(=O)C1CC1 (stereo not drawn),0.00492

row,Compound,z-score
1,COc1ccc(OC)c(-c2csc(NC(=O)CSc3ccccc3)n2)c1,-0.332
2,O=C(COC(=O)/C=C/c1ccc(Cl)cc1Cl)NCCC1=CCCCC1,0.107
3,Cc1ccc(CNC(=S)Nc2ccc(C)c([N+](=O)[O-])c2)cc1,0.255
4,O=C(Nc1ccc2c(c1)CCC2)c1ccccc1F,-0.203
5,CCCOc1ccc(C(CC(=O)O)NS(=O)(=O)c2ccc(NC(C)=O)cc2)cc1 (stereo not drawn),-0.0811
6,COc1ccc(-c2nsc(SCC(=O)Nc3cc(C)on3)n2)cc1,-0.842
7,COc1ccc2c(C(F)(F)F)cc(=O)oc2c1C,-0.282
8,CCOC(=O)CC(=O)CSc1nc(-c2ccccc2)cc(-c2ccc(Cl)cc2)c1C#N,-0.159
9,O=[N+]([O-])c1cc2c(cc1/C=N/n1c(-c3ccccn3)n[nH]c1=S)OCO2,0.264
10,O=C(CSc1ccc(Cl)cc1)Nc1cccc(-c2nc3ncccc3o2)c1,-0.243
11,CSc1ccc(S(=O)(=O)Nc2ccc(F)cc2)cc1,0.444
12,CCOC(=O)C1CCN(S(=O)(=O)c2ccc(CC)cc2)CC1,0.476
13,O=C(C1CCCCC1)N1CCN(c2ncccn2)CC1,0.498
14,COC(=O)C1=C(C(=O)OC)C(c2cc(Br)ccc2O)c2sc(=O)[nH]c2S1 (stereo not drawn),0.749
15,CCN(c1ccccc1)S(=O)(=O)c1ccc(N)cc1,-0.101
16,Cc1cc(C)cc(NC(=O)c2ccc(CSc3nnnn3C)cc2)c1,-0.11
17,Cc1cc(S(=O)(=O)Nc2ccc(N(C)C)cc2)c(C)s1,-0.29
18,Cc1cccc(OCC(O)CN2C(C)(C)CC(O)CC2(C)C)c1C (stereo not drawn),1.1
19,O=C(CC1CCS(=O)(=O)C1)Nc1ccc[nH]c1=O (stereo not drawn),0.248
20,O=C(NC(NCc1ccccc1)C(Cl)(Cl)Cl)c1cccnc1 (stereo not drawn),-0.0249
21,O=C(CCOc1ccccc1)Nc1ccccc1,0.347
22,COc1cccc(C(=O)NCc2nnc(SCC(=O)Nc3nccs3)n2-c2ccccc2)c1,0.352
23,CCC(C)(C)n1nnnc1C(c1ccc(C)cc1)N1CCCC1 (stereo not drawn),-0.205
